Data from PubChem BioAssay AID485294 (National Center for Advancing Translational Sciences (NCATS), 2010).
In all, about 370,000 compounds went through this assay and about 150 (0.041%) were called active. Inconclusive means that the source gave no clear call. Such entries were picked first, then a sample of the others. The call rests on the fitted dose curve; in most records, active means well fitted inhibition curve with a large enough effect; inconclusive means small, poorly fitted or top-dose-only effect; inactive means flat fitted curve, though single readings scatter. Potencies of inconclusive entries are left out as doubtful fits.

Biological target: Beta-lactamase (Escherichia coli (strain K12)) (UniProt P00811)
Assay: qHTS Inhibitors of AmpC Beta-Lactamase (assay with detergent); further: nearly all actives have a fitted effect of over 25% in size
Settings: AmpC hydrolysis of nitrocefin, absorbance 480 nm, 0.01% Triton; series mostly up to 114 µM
In short: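 AmpC (5.3 nM in the dispensed reagent) in 20 mM phosphate pH 7.0 with 0.01% (detergent screen) or 0.0001% Triton X-100 was preincubated with compounds for 15 min at room temperature. Nitrocefin was then added from an 800 uM solution, and hydrolysis was followed at 480 nm.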
Potency means the concentration at half of the fitted maximal effect; tags describe the fitted curve by direction and shape.

Chain of UniProt P00811 (P00811 whole entry, looked up): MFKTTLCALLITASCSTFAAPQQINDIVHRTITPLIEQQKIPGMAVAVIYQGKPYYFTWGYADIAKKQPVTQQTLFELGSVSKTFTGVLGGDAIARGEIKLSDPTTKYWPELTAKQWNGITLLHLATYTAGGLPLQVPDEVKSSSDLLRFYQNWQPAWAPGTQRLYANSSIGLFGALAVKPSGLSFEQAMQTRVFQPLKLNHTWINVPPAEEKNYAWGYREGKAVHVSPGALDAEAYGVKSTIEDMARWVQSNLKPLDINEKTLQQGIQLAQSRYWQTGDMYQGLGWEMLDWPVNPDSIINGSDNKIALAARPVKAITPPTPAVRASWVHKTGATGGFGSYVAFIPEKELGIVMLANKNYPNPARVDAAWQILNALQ

Row | SMILES | Potency
1 | COc1ccc(S(=O)(=O)Nc2ccc(O)c(Sc3ncn[nH]3)c2)cc1 | inconclusive [inhibitor, single point]
2 | CNC(=S)N/N=C/c1c(C)nn(-c2ccccc2)c1Cl | inconclusive [inhibitor, full curve]
3 | CCCCN(C(=O)c1ccc(S(=O)(=O)N2CCC(C)CC2)cc1)C1CCS(=O)(=O)C1 (stereo not given) | inconclusive [inhibitor, partial curve, poor fit]
4 | Cc1sc2nc(C3CC3)nc(SCC(=O)N3c4ccccc4CC3C)c2c1C (stereo not given) | inactive
5 | CCOc1ccc(OCC)c(NC(=O)c2cnc(SC)nc2-c2ccccc2)c1 | inactive
6 | Cc1ccc(C)c(C(=O)COC(=O)c2c(-c3ccccc3)noc2C)c1 | inactive
7 | Cc1ccc2cc(CN(Cc3ccco3)C(=O)NCc3ccccc3)c(=O)[nH]c2c1C | inconclusive [inhibitor, full curve, poor fit]
8 | NCCNC(=O)Cc1ccc(NC(=O)Cc2ccc(Nc3ncnc4c3ncn4[C@@H]3O[C@H](CO)[C@@H](O)[C@H]3O)cc2)cc1 | inconclusive [inhibitor, partial curve, poor fit]
9 | CC(C)NC(=O)c1ccccc1S(=O)c1ccccc1C#N (stereo not given) | inconclusive [inhibitor, single point]
10 | Clc1ccc(-c2ccc(CN3CCCCC3)o2)cc1 | inconclusive [inhibitor, single point]
11 | CCOC(=O)c1c(C)c(C(=O)NCc2ccc3c(c2)OCO3)c(C)n1CC | inconclusive [inhibitor, full curve, poor fit]
12 | CCOc1ccccc1NS(=O)(=O)c1ccc2oc(=O)ccc2c1 | inconclusive [inhibitor, partial curve, poor fit]
13 | Nc1ccn(-c2ccc(Cl)cc2)c(=O)c1 | inconclusive [inhibitor, full curve, poor fit]
14 | COc1ccc(S(=O)(=O)N2CCN(C(=O)N(C)C)C2C)cc1 (stereo not given) | inconclusive [inhibitor, partial curve]
15 | COc1cc(/C(C)=N\NC(N)=S)cc(OC)c1OC | inconclusive [inhibitor, partial curve, poor fit]
16 | COc1ccc(OC)c(NC(=O)CSc2ccc3nnc(-c4ccccn4)n3n2)c1 | inactive
17 | Cc1ccc(Cl)cc1N1CCN(C(=O)c2cc(S(=O)(=O)N3CCCC3)c[nH]2)CC1 | inactive
18 | CC(C)COc1ccc(C(=O)OC2CC(C)(C)OCC2CN(C)C)cc1 (stereo not given) | inconclusive [inhibitor, full curve, poor fit]
19 | COc1ccc(-c2cc(C(=O)OCC(=O)N(C)C3CCS(=O)(=O)C3)c3ccccc3n2)cc1OC (stereo not given) | inactive
20 | CC(=O)c1ccc(-n2nncc2C)cc1 | inconclusive [inhibitor, full curve, poor fit]
21 | CC(=O)Nc1ccc(S(=O)(=O)NCCC(=O)OCc2csc(CC(=O)Nc3ccccc3C)n2)cc1 | inactive
22 | O=C(Nc1ccc(NC(=O)c2ccc([N+](=O)[O-])o2)cc1Cl)c1ccco1 | inactive
23 | COc1cc(C=NCC2OCCc3ccccc32)cc(OC)c1 (stereo not given) | inactive

Row | SMILES | Potency
24 | COc1ccc(Nc2nc(C)cc(C)c2C(N)=O)cc1 | inconclusive [inhibitor, full curve]
25 | CSc1nnc(CNS(=O)(=O)c2ccc(Br)cc2)n1C | inactive
26 | COC(=O)c1c(O)cc(=O)n2c1CCCCC2 | inconclusive [inhibitor, full curve, poor fit]
27 | CCOC(=O)C(C)Sc1nnc(-c2c[nH]c3ccccc23)n1C (stereo not given) | inactive
28 | CC(C)(C)OC(=O)N1CCC[C@H]1C(=O)N/N=C/c1ccc2ncccc2c1 | inactive
29 | COc1cc(-c2nn3c(-c4ccccn4)nnc3s2)cc(OC)c1OC | inconclusive [inhibitor, full curve, poor fit]
30 | COc1ccc(CNc2n[nH]c(NCc3ccc(OC)c(OC)c3)n2)cc1OC | inconclusive [inhibitor, full curve, poor fit]
31 | Cc1ccc(-n2nnnc2SCC(=O)c2cc(C)n(CC3CCCO3)c2C)cc1 (stereo not given) | inactive
32 | COc1ccc(NS(=O)(=O)c2ccc(Br)s2)cc1OC | inconclusive [inhibitor, full curve, poor fit]
33 | Cc1ccc2nc(N/C(=N/S(=O)(=O)c3ccc(F)cc3F)c3ccccc3)sc2c1 | inactive
34 | CC(=O)Nc1ccccc1Sc1ccc2c3c(cccc13)C(=O)N(c1ccc(C)cc1)C2=O | inconclusive [inhibitor, partial curve]
35 | c1ccc(-c2noc(CSc3nnnn3C3CCCCC3)n2)cc1 | inactive
36 | Fc1ccc(Nc2nc(-c3ccncc3)nc3ccccc23)cc1 | inconclusive [inhibitor, full curve, poor fit]
37 | COc1ccc(C2C(=O)c3ccccc3C2=O)c(OC)c1 | inconclusive [inhibitor, single point]
38 | CCOC(=O)c1nnc2cc(-c3ccc(Br)cc3)nn2c1C | inconclusive [inhibitor, single point]
39 | Cc1ccccc1C(=O)NC1CCN(Cc2ccccc2)CC1 | inactive
40 | Cc1ccc(S(=O)(=O)N2CCCC(C(=O)Nc3ccc(NC(=O)c4ccccn4)cc3)C2)cc1 (stereo not given) | inconclusive [inhibitor, full curve]
41 | CCOc1cc(C)nc(N2CCN(C3CCCCC3)CC2)n1 | inconclusive [inhibitor, single point]
42 | Cc1cccc(S(=O)(=O)c2cn(C)c3cc(N4CCN(c5ccc(F)cc5)CC4)c(F)cc3c2=O)c1 | inactive
43 | COc1ccc(CC(=O)NCC2CCCN(Cc3ccccc3Cl)C2)cc1 (stereo not given) | inconclusive [inhibitor, full curve, poor fit]
44 | CCCn1nnc(NC(=O)COc2ccc(C3CCCCC3)cc2)n1 | inconclusive [inhibitor, full curve]
45 | CCn1c(SCC(=O)Nc2ccccc2Cl)nnc1C1CC1 | inconclusive [inhibitor, full curve, poor fit]
